Whole data set: some 33,000 sequences, median “E-score (-0.5 to 0.5)” near -0.054, cut for the highest 2% near 0.35. This is one part of the list.

In the experiment the target is T1, Stb5 (UniProt P38699).
T1 sequence: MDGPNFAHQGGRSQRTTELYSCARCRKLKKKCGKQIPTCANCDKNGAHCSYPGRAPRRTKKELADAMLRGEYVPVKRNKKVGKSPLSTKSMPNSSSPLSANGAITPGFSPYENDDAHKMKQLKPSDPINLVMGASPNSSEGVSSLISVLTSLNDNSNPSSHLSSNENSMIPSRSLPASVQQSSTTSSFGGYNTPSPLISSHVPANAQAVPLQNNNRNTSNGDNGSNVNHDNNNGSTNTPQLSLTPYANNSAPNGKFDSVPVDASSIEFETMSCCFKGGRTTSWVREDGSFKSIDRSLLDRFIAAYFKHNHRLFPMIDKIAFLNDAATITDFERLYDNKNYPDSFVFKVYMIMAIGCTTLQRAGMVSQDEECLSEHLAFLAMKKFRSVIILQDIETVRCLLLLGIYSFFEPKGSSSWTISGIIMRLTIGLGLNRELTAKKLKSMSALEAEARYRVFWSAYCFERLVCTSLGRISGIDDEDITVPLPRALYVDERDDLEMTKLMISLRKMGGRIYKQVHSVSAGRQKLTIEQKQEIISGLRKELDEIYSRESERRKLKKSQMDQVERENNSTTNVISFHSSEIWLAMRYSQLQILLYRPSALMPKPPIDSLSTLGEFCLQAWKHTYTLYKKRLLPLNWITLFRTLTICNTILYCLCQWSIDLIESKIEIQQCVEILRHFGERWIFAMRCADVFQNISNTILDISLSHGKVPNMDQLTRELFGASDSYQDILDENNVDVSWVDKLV
Put plainly: PBM E-score (8-mer binding enrichment) (E-score (-0.5 to 0.5)); higher = stronger / more preferred TF binding; most listed sequences are background and not binding sites. To be noted: protein concentration: 200 nM; construct: GST-full length. The protocol: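 Universal 'all 10-mer' protein binding microarrays (Agilent AMADID 015681) probed with GST-tagged S. cerevisiae TFs (full-length or DBD) made by in vitro transcription/translation (PURExpress), about 100-200 nM. Bound TF was detected with fluorescent anti-GST. Each ungapped 8-mer (which stands for itself and its reverse complement) is scored by the PBM enrichment score (E-score), a modified Wilcoxon-Mann-Whitney statistic from -0.5 to +0.5, computed with the Universal PBM Analysis Suite. Scale: above 0.35 generally sequence-specific binding.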
Consider AAAGTCAG, for which the “PBM E-score” value was -0.167. As for CGCATTAG, the “PBM E-score” value is -0.0434. As for CTTACGAC, the “PBM E-score” value was -0.197. Regarding CGTGCGAG, the “PBM E-score” value was 0.0353.

On to AAAACAAG, for which the “PBM E-score” value is -0.0664. As to CAAACTGC, the “PBM E-score” value is 0.0402. In the case of CAGTGTGG it was -0.0854. As to GCCCCTAA, the “PBM E-score” value was -0.0418. For AGCACGTA, the “PBM E-score” value is -0.156.

For the sequence ACGCGTAC, the “PBM E-score” value was -0.223. As for GATACGCC, the “PBM E-score” value worked out at 0.102.

For AAGCGCTA, the “PBM E-score” value is 0.0383. Turning to AAGCGTAT, the “PBM E-score” value is -0.154. In the case of AATTAACT it was -0.0771; in that of CTCTACGC, -0.198. Regarding CAGCCTAC, the “PBM E-score” value is -0.0887. In the case of CGCGGGCA, the “PBM E-score” value was 0.305.

As for CCTCGCCG, the “PBM E-score” value is 0.0569. ACGGGCGC: the “PBM E-score” value came to 0.0712. Turning to CGTAAGCA, the “PBM E-score” value was -0.151. For the sequence AGATAAAC, the “PBM E-score” value amounted to 0.0577. With CAGTCCAG the figure was -0.128; with CGGGCCAG, -0.0225; with CTTGGGGC, 0.0335.

Turning to AAGACATG, the “PBM E-score” value was -0.124. As for CAGCGCAA, the “PBM E-score” value is -0.0211.

With GGCCCAAA, the “PBM E-score” value amounted to 0.1. With ACTGGACC the figure was 0.0683; with ATCATGAA, -0.00907; with GAATGTGC, -0.0252.

Take AGTTTAAA: the “PBM E-score” value is 0.149. In the case of AGATGTTG it was -0.103. With ATGAGGGA the figure was -0.293; with ACAGTTAT, -0.0772; with AGCTAGCA, -0.083. As to AGGTCGGG, the “PBM E-score” value worked out at 0.248.

With GCAGAAGC, the “PBM E-score” value was -0.0355. For the sequence GACGCTCA, the “PBM E-score” value turned out to be 0.00113. Take GACCCCAA: the “PBM E-score” value was -0.0607. AATGCAGT: the “PBM E-score” value is -0.16. CCATGTGC: the “PBM E-score” value was -0.0297. With AGCCAGGG, the “PBM E-score” value was -0.268. As for ACTGGATG, the “PBM E-score” value was -0.257. With AGCCTCTC the figure was -0.299; with CCTGCGAC, -0.0908. Regarding CAGCAGCG, the “PBM E-score” value stood at 0.0594. For CCACACCG, the “PBM E-score” value came out at 0.264. CCCTTCAG: the “PBM E-score” value was -0.243. In the case of ATCTCAGA, the “PBM E-score” value was -0.137. As to CACCGATA, the “PBM E-score” value turned out to be 0.351. Regarding AGTTATGG, the “PBM E-score” value was found to be 0.0212. As for ATTCACGC, the “PBM E-score” value was -0.163.

In the case of ATGATGCC, the “PBM E-score” value turned out to be 0.14. With AACCGGGC, the “PBM E-score” value amounted to 0.239. For GATGTACC, the “PBM E-score” value was found to be 0.0308. On to GAAGCCCA, for which the “PBM E-score” value is -0.14. With GACTACGA the figure was -0.184; with AGCTGTAA, -0.0795. For the sequence CCGGTGCA, the “PBM E-score” value amounted to 0.28. Consider TATGGTCA, for which the “PBM E-score” value is -0.127.

In the case of CCGGCAGG, the “PBM E-score” value was found to be 0.183. In the case of CTCATATC it was -0.132; in that of CCTTTGAG, -0.217. In the case of ATTGAGCC it was 0.0599; in that of CATAAAGG, -0.0239; in that of CAGTTTGC, -0.0486. As for CCTCCTAA, the “PBM E-score” value was -0.0546. Consider CAGTCTCC, for which the “PBM E-score” value was -0.0247. As to GATAGACC, the “PBM E-score” value turned out to be 0.167.

As for CACCAGGC, the “PBM E-score” value was -0.157. As for ATAAAAAC, the “PBM E-score” value was 0.0121. On to CACCTAAG, for which the “PBM E-score” value is -0.121. On to TAAGTAGA, for which the “PBM E-score” value is -0.162. For the sequence TATAAGGA, the “PBM E-score” value was -0.0663. For the sequence GGATATAC, the “PBM E-score” value worked out at 0.283. In the case of TACGTAGA, the “PBM E-score” value is -0.182. With ACAGCTCA, the “PBM E-score” value is -0.252. Regarding CATTCCGC, the “PBM E-score” value stood at 0.109. With ATAGACAG the figure was -0.256; with CTCGGTTC, -0.0462; with AAGTATTC, -0.186. Regarding AGAGTGCT, the “PBM E-score” value was -0.0924. As to AACGCCTT, the “PBM E-score” value is -0.00961. With CAGCTCAA, the “PBM E-score” value is -0.266. ATTTGGCC: the “PBM E-score” value is -0.0827. Consider ATCATAAT, for which the “PBM E-score” value was -0.129. CCCTGCGA: the “PBM E-score” value is -0.321. For the sequence CGTCGCAA, the “PBM E-score” value turned out to be 0.0017. With CGTCGGCA the figure was 0.334; with CGGCGTGA, 0.326; with CCTACCAA, -0.101. As to AGGGTGCA, the “PBM E-score” value is -0.155. On to CTTTCTGA, for which the “PBM E-score” value was -0.199. On to AACTTGAA, for which the “PBM E-score” value is 0.0989.
